The IC50 comes from the fitted curve, where viability falls to half of the control; where the fit passes the top or lowest dose, that dose stands as a limit. AUC is the area under the same curve over the 256-fold range up to the top dose, as a fraction: 1 means no effect, lower means more sensitive. For part of these data: The top dose, if marked as inferred, comes from the curve model; the source does not state it.
How the values were obtained:
Experiment in all cases: Viability of human cancer cell lines after 72 h of drug (GDSC screen)
QL-XI-92 = compound: C=CC(=O)Nc1cc(NC(=O)c2ccc(C)c(NC(=O)c3ccno3)c2)cc(C(F)(F)F)c1 [QL-XI-92]; details: top dose 10.24 µM; top dose inferred
Description: (§1)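 Human cancer cell lines in 384-well plates, medium with 10% serum, drug for 72 h over a 256-fold dose range (nine 2-fold or five 4-fold steps up to the top dose). Adherent lines were fixed and stained with the nucleic acid dye Syto60, suspension lines read with resazurin; signal relative to control wells, capped at 0 and 100%. One two-parameter sigmoid per drug and line, fitted in a mixed model over all curves with the slope shared within a line.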

Vinorelbine = compound: CCC1=C[C@@H]2CN(C1)Cc1c([nH]c3ccccc13)[C@@](C(=O)OC)(c1cc3c(cc1OC)N(C)[C@H]1[C@@](O)(C(=O)OC)[C@H](OC(C)=O)[C@]4(CC)C=CCN5CC[C@]31[C@@H]54)C2 [Vinorelbine]; details: top dose 0.064 µM; top dose inferred
Description: as §1

AG-014699 = compound: CNCc1ccc(-c2[nH]c3cc(F)cc4c3c2CCNC4=O)cc1 [AG-014699]; details: top dose 5 µM; top dose inferred
Description: as §1

XL-184 = compound: COc1cc2nccc(Oc3ccc(NC(=O)C4(C(=O)Nc5ccc(F)cc5)CC4)cc3)c2cc1OC [XL-184]; details: top dose 5.12 µM; top dose inferred
Description: as §1

WHI-P97 = compound: COc1cc2ncnc(Nc3cc(Br)c(O)c(Br)c3)c2cc1OC [WHI-P97]; details: top dose 10.24 µM; top dose inferred
Description: as §1

Gefitinib = compound: COc1cc2ncnc(Nc3ccc(F)c(Cl)c3)c2cc1OCCCN1CCOCC1 [Gefitinib]; details: top dose 0.5 µM
Description: as §1

Phenformin = compound: N=C(N)NC(=N)NCCc1ccccc1 [Phenformin]; details: top dose 4000 µM; top dose inferred
Description: as §1

EHT 1864 = compound: O=c1cc(CN2CCOCC2)occ1OCCCCCSc1ccnc2cc(C(F)(F)F)ccc12 [EHT 1864]; details: top dose 10 µM; top dose inferred
Description: as §1

NU-7441 = compound: O=c1cc(N2CCOCC2)oc2c(-c3cccc4c3sc3ccccc34)cccc12 [NU-7441]; details: top dose 2 µM; top dose inferred
Description: as §1

| Cell Line | AUC (QL-XI-92) | IC50 (QL-XI-92) [µM] | AUC (Vinorelbine) | IC50 (Vinorelbine) [µM] | AUC (AG-014699) | IC50 (AG-014699) [µM] | AUC (XL-184) | IC50 (XL-184) [µM] | AUC (WHI-P97) | IC50 (WHI-P97) [µM] | AUC (Gefitinib) | IC50 (Gefitinib) [µM] | AUC (Phenformin) | IC50 (Phenformin) [µM] | AUC (EHT 1864) | IC50 (EHT 1864) [µM] | AUC (NU-7441) | IC50 (NU-7441) [µM] |
| --- | --- | --- | --- | --- | --- | --- | --- | --- | --- | --- | --- | --- | --- | --- | --- | --- | --- | --- |
| ABC-1 (lung adenocarcinoma, adherent) | 0.941 | > 10.2 | 0.564 | 0.00619 | 0.983 | > 5 | 0.911 | > 5.12 | 0.956 | > 10.2 | 0.972 | > 0.5 | 0.695 | 999 | 0.895 | > 10 | – | – |
| ACHN (kidney, adherent) | 0.967 | > 10.2 | 0.832 | 0.0492 | 0.945 | > 5 | 0.935 | > 5.12 | 0.916 | > 10.2 | 0.787 | 0.251 | 0.823 | 2790 | 0.921 | > 10 | – | – |
| AN3-CA (endometrium, adherent) | 0.976 | > 10.2 | 0.549 | 0.00551 | 0.984 | > 5 | 0.869 | > 5.12 | 0.969 | > 10.2 | 0.985 | > 0.5 | 0.96 | > 4000 | 0.97 | > 10 | – | – |
| BALL-1 (B-cell leukaemia, suspension) | – | – | – | – | 0.997 | > 5 | – | – | – | – | 0.988 | > 0.5 | – | – | 0.971 | > 10 | 0.995 | > 2 |
| BT-549 (breast, adherent) | – | – | – | – | 0.951 | > 5 | – | – | – | – | 0.979 | > 0.5 | – | – | 0.924 | > 10 | 0.971 | > 2 |
| CFPAC-1 (pancreas, adherent) | 0.948 | > 10.2 | 0.688 | 0.0146 | 0.948 | > 5 | 0.962 | > 5.12 | 0.97 | > 10.2 | 0.936 | > 0.5 | 0.981 | > 4000 | 0.983 | > 10 | – | – |
| CL-34 (large intestine, adherent) | – | – | – | – | 0.987 | > 5 | – | – | – | – | 0.987 | > 0.5 | – | – | 0.978 | > 10 | 0.986 | > 2 |
| DMS-53 (small cell lung carcinoma, adherent) | 0.988 | > 10.2 | 0.955 | > 0.064 | 0.955 | > 5 | 0.988 | > 5.12 | 0.988 | > 10.2 | 0.988 | > 0.5 | 0.531 | 306 | 0.903 | > 10 | – | – |
| Daoy (medulloblastoma, adherent) | 0.885 | 9.39 | 0.607 | 0.00761 | 0.95 | > 5 | 0.963 | > 5.12 | 0.976 | > 10.2 | 0.971 | > 0.5 | 0.756 | 1250 | 0.975 | > 10 | – | – |
| EFM-19 (breast, adherent) | 0.978 | > 10.2 | 0.547 | 0.00576 | 0.965 | > 5 | 0.901 | > 5.12 | 0.976 | > 10.2 | 0.976 | > 0.5 | 0.868 | > 4000 | 0.952 | > 10 | – | – |
| EPLC-272H (lung squamous cell carcinoma, adherent) | 0.866 | > 10.2 | 0.486 | 0.00365 | 0.966 | > 5 | 0.842 | 4.32 | 0.961 | > 10.2 | 0.916 | > 0.5 | 0.418 | 145 | 0.961 | > 10 | – | – |
| G-402 (soft tissue, adherent) | 0.883 | > 10.2 | 0.569 | 0.00658 | 0.859 | > 5 | 0.808 | 3.78 | 0.968 | > 10.2 | 0.975 | > 0.5 | 0.559 | 381 | 0.831 | 9.52 | – | – |
| H2722 (mesothelioma, adherent) | 0.97 | > 10.2 | 0.776 | 0.0305 | 0.973 | > 5 | 0.955 | > 5.12 | 0.95 | > 10.2 | 0.984 | > 0.5 | 0.983 | > 4000 | 0.966 | > 10 | – | – |
| HCC70 (breast, adherent) | 0.983 | > 10.2 | 0.647 | 0.0101 | 0.985 | > 5 | 0.975 | > 5.12 | 0.987 | > 10.2 | 0.928 | > 0.5 | 0.829 | 2420 | 0.967 | > 10 | – | – |
| HMV-II (melanoma, adherent) | 0.941 | > 10.2 | 0.533 | 0.00502 | 0.982 | > 5 | 0.964 | > 5.12 | 0.981 | > 10.2 | 0.963 | > 0.5 | 0.691 | 975 | 0.96 | > 10 | – | – |
| HOP-92 (large cell lung carcinoma, adherent) | 0.984 | > 10.2 | 0.862 | > 0.064 | 0.96 | > 5 | 0.982 | > 5.12 | 0.984 | > 10.2 | 0.984 | > 0.5 | 0.878 | > 4000 | 0.966 | > 10 | – | – |
| HSC-4 (head and neck, adherent) | 0.978 | > 10.2 | 0.925 | > 0.064 | 0.902 | > 5 | 0.957 | > 5.12 | 0.961 | > 10.2 | 0.607 | 0.0676 | 0.835 | 3990 | 0.92 | > 10 | – | – |
| JHH-6 (liver, adherent) | 0.985 | > 10.2 | 0.839 | 0.0447 | 0.93 | > 5 | 0.963 | > 5.12 | 0.978 | > 10.2 | 0.987 | > 0.5 | 0.952 | > 4000 | 0.882 | > 10 | – | – |
